# The campaign covered roughly 110,000 compounds. About 40 (0.04%) were called active. Inconclusive results, whose numbers are uncertain, are shown with a selection of clear calls. The call rests on the fitted dose curve; in most records, active means well fitted curve in the direction sought with a large enough effect in the signal ratio (not every such curve was filed as active); inconclusive means small, poorly fitted or top-dose-only effect, or a change in a side signal; inactive means flat fitted curve, though single readings scatter; the % refers to the signal ratio. Potencies of inconclusive entries are doubtful fits and often do not repeat.
# Test: IkB Signaling;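 on IkBa stabilization activation: 0% = basal untreated cells and 100% = reference inhibitor full response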
# Conditions: ABC-DLBCL IkBa-CBG/CBR dual luciferase ratio (green luciferase fused to IkBa over red control in OCI-Ly3 lymphoma cells), 4 h; IkBa stabilization activation: at 57.1 µM (top of the series), scaled: untreated 0%, proteasome inhibitor 100% unless noted
# How it was run: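 Luminescence ratio of IκBα-fused green versus native red beetle luciferase in OCI-Ly3 cells, 4 h post-doxycycline with compound; red signal alone, scaled from basal (0%) to zero light (-100%), flagged nonspecific or cytotoxic effects.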
# Potency means the concentration at half of the fitted maximal effect.
SMILES,IkBa stabilization activation,Potency
CCc1ccc(S(=O)(=O)c2nnn3c2nc(N2CCN(CC)CC2)c2sccc23)cc1,inconclusive: -0.0113% [signal inhibitor],–
CCOC(=O)c1ccc(N2C(=O)c3n[nH]c(-c4ccco4)c3C2c2cccc(F)c2)cc1 (stereo unspecified),inconclusive: -4.77% [signal inhibitor],–
CCC(=O)N1CCc2cc(S(=O)(=O)NC(Cc3ccccc3)C(=O)Nc3ccc(Cl)cc3)ccc21 (stereo unspecified),inconclusive: 4.26% [signal inhibitor],–
CSc1ccc(NC(=O)Nc2cc(C)ccn2)cc1,"inactive: 3.61% [at 11.4 µM, scaled: untreated 0%, proteasome inhibitor 100%]",–
O=C(CSc1nc(-c2ccccc2)[nH]c1-c1ccc(F)cc1)NC1CCCC1,inconclusive: -0.43% [signal inhibitor],–
COc1ccccc1C(=O)N1CCC(c2c[nH]c3ccccc23)(c2c[nH]c3ccccc23)CC1,inactive: 2.45%,–
CC(C)c1ccc(S(=O)(=O)Nc2cc3c(cc2NCc2ccccc2)n(C)c(=O)n3C)cc1,inactive: 22.1%,–
COc1ccc(CCNC(=O)c2cc3cccc4c3n2CC(C)S4)c(OC)c1OC (stereo unspecified),inconclusive: -0.793% [signal inhibitor],–
CCCC(=O)Nc1c(C(=O)N2CCN(c3ccccc3)CC2)oc2ccccc12,inconclusive: 1.36% [signal inhibitor],–
COCCn1c(=O)c(CCc2ccccc2)nc2cnc(Oc3ccc(OC)cc3)nc21,"inactive: 4.42% [at 11.4 µM, scaled: untreated 0%, proteasome inhibitor 100%]",–
CCc1ccccc1NC(=O)C1=CC(c2ccc3c(c2)OCO3)=NS(=O)(=O)N1C,inconclusive: 0.182% [signal inhibitor],–
CC(C)(C)c1ccc(C(=O)Nc2ccc3nc(SCC(=O)N4CCCC4)sc3c2)cc1,inconclusive: -1.83% [signal inhibitor],–
O=C(CN1C(=O)COc2ccc(S(=O)(=O)N3CCCCCC3)cc21)N1CCN(c2cccc(Cl)c2)CC1,inconclusive: 3.04% [signal inhibitor],–
O=C(CSc1nnc(Cn2c(=O)sc3ccccc32)n1-c1ccccc1)Nc1nccs1,inconclusive: 5.98% [signal inhibitor],–
COc1ccc(-c2nc(C(N)=O)c3[nH]c(=O)n(-c4cccc(C)c4)c3n2)c(OC)c1,inactive: -4.07%,–
Cc1cccc(N2CCN(C(=O)CCNS(=O)(=O)c3ccc4c(c3)CCN4C(=O)C3CC3)CC2C)c1 (stereo unspecified),inconclusive: 0.89% [signal inhibitor],–
Cc1cccc(C(=O)Nc2nc3c(s2)CCCC3)c1,–,"inconclusive: 3.98 µM [signal inhibitor, full curve]"
CSc1ccc(CCNC(=O)c2ccc3c(c2)nc2n3CCC(C)C2)cc1 (stereo unspecified),inconclusive: -3.22% [signal inhibitor],–
Cc1c2c(n3c(nc4ccccc43)c1C#N)N(Cc1ccccn1)CC2,inconclusive: 7.49% [signal inhibitor],–
CCOC(=O)c1sc(NC(=O)CN2CCCC2)c(C(=O)OCC)c1C,inactive: 1.13%,–
COc1ccc(N2CCN(C(=O)c3c(C)nn(-c4ccc(F)cc4)c3-n3cccc3)CC2)cc1,inconclusive: -1.81% [signal inhibitor],–
O=C(C1CCCN(S(=O)(=O)c2cccs2)C1)N1CCN(c2ccccc2F)CC1 (stereo unspecified),inconclusive: 4.1% [signal inhibitor],–

SMILES,IkBa stabilization activation,Potency
Cc1ccc(CN(Cc2cccn2-c2nnc(N3CCCC3=O)s2)C(=O)Nc2cc(C)cc(C)c2)cc1,inconclusive: 1.77% [signal inhibitor],–
C[C@@H]1C[C@@H]2[C@H]3CCC4=CC(=O)C=C[C@]4(C)[C@]3(Cl)[C@@H](O)C[C@@]2(C)[C@@]1(O)C(=O)CO,–,"inconclusive: 0.0158 µM [rising, full curve, poor fit]"
O=C(NCc1cccc(Cl)c1)c1ccc2c(c1)nc1n2CCOC1,inactive: 0.804%,–
CCCCN(CCCC)S(=O)(=O)c1ccc(NC(=O)c2c(-c3ccccc3)noc2C)cc1,inactive: 0.759%,–
Cn1c(NCc2ccccc2O)nc2ccccc21,inactive: 5.37%,–
COc1ccc(-n2c(=O)cnc3cnc(N(C)C)nc32)cc1,"inactive: 2.33% [at 11.4 µM, scaled: untreated 0%, proteasome inhibitor 100%]",–
COc1ccc(-c2cc(-n3c(C(F)(F)F)nc4ccccc43)n(CCC#N)n2)cc1,inconclusive: 1.24% [signal inhibitor],–
C/C=C/c1ccc(Oc2nnnn2-c2ccc(C(N)=O)cc2)c(OC)c1,inactive: 0.977%,–
CCOc1ccc(-n2c(-c3ccc(OC)cc3)cc3c2CC(C)(C)CC3=O)cc1,inconclusive: -1.49% [signal inhibitor],–
CCOc1ccc(NCc2cccn2-c2nnc(N3CCC(C(=O)NC(C)c4ccccc4)CC3)s2)cc1 (stereo unspecified),inconclusive: -0.722% [signal inhibitor],–
CC1CCc2c(sc3nnn(CC(=O)Nc4cccc(C(F)(F)F)c4)c(=O)c23)C1 (stereo unspecified),inconclusive: 11.8% [signal inhibitor],–
COc1ccc(CNC(=O)c2cc(-c3ccccc3OC)on2)cc1,–,"inconclusive: 15.8 µM [signal inhibitor, partial curve]"
Cc1nc(N)sc1-c1csc(N(C)c2ccc(O)cc2)n1,inactive: 13.4%,–
CCN1C(C(=O)c2ccccc2)=C(OC(=O)c2ccc(Cl)cc2)c2ccccc2S1(=O)=O,inconclusive: -0.056% [signal inhibitor],–
CCc1nnc2c3ccccc3nc(Nc3ccc(F)cc3C)n12,inactive: -1.83%,–
CCc1ccc2oc(-c3cccc(NC(=O)c4ccc(-c5cccc([N+](=O)[O-])c5)o4)c3)nc2c1,–,inconclusive: 7.94 µM [signal inhibitor]
Cc1cccc(OC(C)C(=O)N2CCC(c3nc4ccccc4o3)CC2)c1C (stereo unspecified),inconclusive: -0.753% [signal inhibitor],–
Cn1c(-c2ccc(Br)o2)nc2ccccc21,inactive: 8.23%,–
CCOC(=O)c1cccc(NC(=O)N2Cc3ccccc3Oc3ncccc32)c1,inconclusive: 4.97% [signal inhibitor],–
O=c1c(-c2ccc(F)cc2)nc2cnc(N3CCNCC3)nc2n1Cc1ccc(F)cc1,"inactive: -3.48% [at 11.4 µM, scaled: untreated 0%, proteasome inhibitor 100%]",–
CCOc1cccc(NC(=O)CSc2ncc(-c3ccc(Cl)cc3)[nH]2)c1,–,"inconclusive: 10 µM [signal inhibitor, partial curve]"
COc1ccc(-n2c(=O)c3c4c(sc3n(Cc3ccccc3)c2=O)CCC4)c(OC)c1,inactive: 3.11%,–

SMILES,IkBa stabilization activation,Potency
COc1ccc(N(C)S(=O)(=O)c2cccc(C(=O)NC3=NCCS3)c2)cc1,inactive: 0.924%,–
CC1CCCCN1C(=O)Cn1cc(C(=O)c2ccco2)c2ccccc21 (stereo unspecified),inactive: 2.1%,–
Cc1ccc(OCCSc2nc3ccccc3n2CCC(=O)O)cc1C,inconclusive: 8.46% [signal inhibitor],–
COc1ccc(/C=C(\NC(=O)c2ccccc2)C(=O)NC2CCCCC2)cc1,inactive: 11.1%,–
CCN1CCN(C(c2ccc(Cl)cc2)c2c(O)cc(C)n(CCOC)c2=O)CC1 (stereo unspecified),inconclusive: 2.63% [signal inhibitor],–
COc1ccccc1-c1nnc(SC/C(O)=C(\C#N)c2nc3ccccc3[nH]2)n1C1CCCCC1,–,"inconclusive: 7.94 µM [signal inhibitor, partial curve]"
CCCCn1cnc2cc(NC(=O)c3cc(OC)c(OC)c(OC)c3)ccc21,inconclusive: 18.5% [signal inhibitor],–
Cc1cc(C)cc(N(CC(=O)Nc2ccc(C(F)(F)F)cc2)S(=O)(=O)c2c(C)[nH]c(=O)[nH]c2=O)c1,inconclusive: 6.67% [signal inhibitor],–
Cn1c(NCc2ccccc2F)nc2ccccc21,inconclusive: 0.776% [signal inhibitor],–
N=c1n(CCO)c2ccccc2n1CCOc1ccc(F)cc1,inconclusive: 4.56% [signal inhibitor],–
Cc1cccc(C)c1NC(=O)C1CCN(S(=O)(=O)c2cccc3nsnc23)CC1,inconclusive: -0.724% [signal inhibitor],–
COc1ccccc1NC(=O)CSc1nccc(=O)[nH]1,inactive: -4.11%,–
CCOC(=O)C1CCN(C(=O)c2ccc3c(c2)sc2nc(-c4ccc(OCC)cc4)cn23)CC1,inconclusive: 0.466% [signal inhibitor],–
Cc1ccc(NC(=O)Cn2ccn(Cc3ccc(Cl)cc3)c(=O)c2=O)cc1C,inactive: 2.86%,–
COc1ccc(-c2nc(SCC(=O)NC3CCCC3)c(-c3ccccc3)[nH]2)cc1OC,inconclusive: 4.04% [signal inhibitor],–
COc1ccc(OC)c(Nc2cc(C(=O)NCc3ccccc3)c3ccccc3n2)c1,inactive: 0.509%,–
CC(=O)c1cccc(-n2c(CCC(=O)O)ccc2-c2ccccc2)c1,inconclusive: 7.91% [signal inhibitor],–
CCOc1ccccc1C(=O)N1CCc2cc(OC)c(OC)cc2C1COc1ccc2c(C)cc(=O)oc2c1 (stereo unspecified),inconclusive: 1.4% [signal inhibitor],–
Cc1ccc(-n2ncc3c(Nc4ccc5c(c4)OCCO5)ncnc32)cc1C,inconclusive: 0.496% [signal inhibitor],–
N[C@@H](Cc1[nH]nc2ccccc12)C(=O)O,"inactive: 0.814% [at 11.4 µM, scaled: untreated 0%, proteasome inhibitor 100%]",–
O=C(CSc1nnc(CNC(=O)c2cccs2)o1)c1ccc(Cl)cc1,inconclusive: 4.45% [signal inhibitor],–
CCOC(=O)C1CCN(c2c(Nc3ccc4c(c3)OCCO4)c(=O)c2=O)CC1,inactive: -0.751%,–

# Source: PubChem BioAssay AID445 (National Center for Advancing Translational Sciences (NCATS), 2006)
